Screen size: about 220,000 compounds; about 16,000 (7.3%) were called active. This list was built around the results that the source calls inconclusive (neither active nor inactive); the mix of calls is not that of the screen. Calls come from the whole dose curve; as a rule, active = well fitted inhibition curve with a large enough effect (not every such curve was filed as active); inconclusive = small, poorly fitted or top-dose-only effect, or another doubt; inactive = no such curve, though single readings can be large or run the other way. No potency is given beside an inconclusive call; the fits are too rough.
Each molecule was assayed against Aldehyde dehydrogenase 1A1 (Homo sapiens) (UniProt P00352) (assay: qHTS Assay for Inhibitors of Aldehyde Dehydrogenase 1 (ALDH1A1)). Details: Purified ALDH1A1, NADH fluorescence, propionaldehyde substrate; series mostly up to 75.3 µM; activity, negative = inhibition: at the top concentration.
Potency is the fitted concentration of half-maximal effect; tags give direction and shape of the fitted curve.
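Throughout, for activity, negative = inhibition: plate controls were no enzyme wells and a reference inhibitor.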

Sequence of UniProt P00352 (P00352 whole entry, looked up): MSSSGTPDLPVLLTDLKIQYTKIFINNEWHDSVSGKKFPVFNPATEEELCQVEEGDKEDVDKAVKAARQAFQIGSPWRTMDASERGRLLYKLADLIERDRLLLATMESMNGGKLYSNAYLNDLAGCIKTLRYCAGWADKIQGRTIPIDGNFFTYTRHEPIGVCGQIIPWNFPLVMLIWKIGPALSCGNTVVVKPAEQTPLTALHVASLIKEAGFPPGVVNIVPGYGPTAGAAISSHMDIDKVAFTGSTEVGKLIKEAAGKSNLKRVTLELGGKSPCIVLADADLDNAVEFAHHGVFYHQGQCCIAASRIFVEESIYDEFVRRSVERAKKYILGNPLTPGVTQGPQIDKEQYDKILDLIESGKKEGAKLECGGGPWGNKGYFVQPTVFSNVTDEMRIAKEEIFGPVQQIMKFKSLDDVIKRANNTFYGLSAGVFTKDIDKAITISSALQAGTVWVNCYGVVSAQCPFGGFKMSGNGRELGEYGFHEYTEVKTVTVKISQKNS

SMILES | activity, negative = inhibition | Potency
CC(=O)N1CCN(CC(=O)Nc2cccc(S(=O)(=O)N3CCCCCC3)c2)CC1 | inactive: -4.9% | –
Nc1ncnc(Oc2cccc(C(F)(F)F)c2)c1[N+](=O)[O-] | inactive: 0.422% | –
N#Cc1ccccc1NC(=O)Nc1ccc(Cl)cc1 | – | inconclusive [inhibitor, partial curve]
CC(C)CSc1nc(N2CCOCC2)c2c(c1C#N)CC(C)(C)SC2 | – | inconclusive [inhibitor, single point]
CC(=O)Nc1c(O)nc(SCC(=O)N2CCN(c3ccc(F)cc3)CC2)[nH]c1=O | – | inconclusive [inhibitor, single point]
COc1ccc([N+](=O)[O-])cc1NC(=O)CCSCCc1ccccn1 | inactive: -5.76% | –
CCOCCCN1CN(Cc2ccco2)CNC1=S | – | inconclusive [inhibitor, single point]
Cc1ccc(NC(=O)CN(C)C(=O)c2ccc(Cl)c([N+](=O)[O-])c2)cc1 | inactive: 17.4% | –
COc1ccc(C(=O)c2ccc(OC)c(OC)c2)cc1 | – | inconclusive [inhibitor, single point]
Cc1nn(Cc2ccccc2)c(C)c1NC(=O)CCCn1nc([N+](=O)[O-])c(Cl)c1C | – | inconclusive [inhibitor, single point]
COc1ccc(Cl)cc1-n1c(C)cc(C(=O)O)c1C | – | inconclusive [inhibitor, single point]
COc1ccc(OC)c(C2CC(=O)N3CN(c4ccccc4)CSC3=C2C#N)c1 (centres undefined) | – | active: 7.94 µM
CCCc1nc2sc3c(=O)n(N)cnc3c2c2c1CCCC2 | inactive: 1.8% | –
O=C1C(=O)N(Cc2cccc([N+](=O)[O-])c2)c2ccccc21 | – | active: 0.0501 µM
COc1ccc(NC(=O)N/C=C/c2ccco2)cc1 | – | active: 28.2 µM
COc1ccc(-c2nnc(Nc3nc4c(OC)cccc4s3)o2)c(OC)c1 | – | inconclusive [inhibitor, single point]
Cc1cccc2cc(COC(=O)C(C)C)c(=O)[nH]c12 | – | inconclusive [inhibitor, partial curve]
CCN1CCN(CCCN(Cc2cccs2)C(=S)Nc2ccccc2C)CC1 | inactive: 6.22% | –
COc1ccc(C(=O)OCCN2CCOCC2)cc1 | inactive: -2.41% | –
COC(=O)c1sc(NC(=O)Cc2cccs2)nc1C | – | active: 12.6 µM
COc1ccc(NC(=O)Nc2nnc(C(C)C)s2)cc1 | – | inconclusive [inhibitor, partial curve, poor fit]
O=C(CCSc1ccc(Cl)cc1)N1CCCCCC1 | inactive: -6.68% | –
C=CCNC(=S)Nc1sc2c(c1C(=O)OCC)CCN(C(=O)OCC)C2 | – | active: 20 µM
O=C(CC(c1ccccc1)c1ccco1)N1CCOCC1 (centres undefined) | – | active: 39.8 µM
COc1ccc(C2C3=C(CC(C)(C)CC3=O)N(C)C3=C2C(=O)CC(C)(C)C3)cc1 | – | inconclusive [inhibitor, partial curve]

SMILES | activity, negative = inhibition | Potency
COc1ccccc1/C=C/C=N/n1c(-c2ccco2)n[nH]c1=S | – | inconclusive [inhibitor, single point]
COc1ccc(NC(=O)CN2CCN(Cc3ccc4c(c3)OCO4)CC2)cc1OC | – | inconclusive [inhibitor, partial curve]
COC(=O)[C@@H]1[C@@H]2C[C@H]3c4[nH]c5cc(OC)ccc5c4CCN3C[C@@H]2C[C@H](OC(=O)c2cc(OC)c(OC)c(OC)c2)[C@H]1OC | – | inconclusive [inhibitor, partial curve]
Cc1cc(N2CCCC2)nc2ccc(NC(=S)NCCCN3CCC(C)CC3)cc12 | inactive: -0.706% | –
C1CCc2c(nnc3c2-c2nonc2CC3)C1 | – | inconclusive [inhibitor, single point]
Cc1c(NC(=O)CCC2CCCCC2)c(=O)n(-c2ccccc2)n1C | – | inconclusive [inhibitor, partial curve, poor fit]
CCS(=O)(=O)N1N=C(c2cccc(NS(C)(=O)=O)c2)CC1c1ccc(C)cc1 (centres undefined) | – | active: 20 µM
Cc1cc(NC(=O)CSc2nc3c(cc2C#N)CCCC3)no1 | – | inconclusive [inhibitor, single point]
CCc1c(C)nc(Nc2nc(C)c3cc(OC)ccc3n2)[nH]c1=O | – | inconclusive [inhibitor, partial curve]
Oc1ccccc1-c1nc2c3ccccc3c3ccccc3c2[nH]1 | – | inconclusive [inhibitor, partial curve]
COc1ccc2oc(=O)c(C(=O)N3CCCC3)cc2c1 | – | inconclusive [inhibitor, single point]
COC(=O)c1sccc1NC(=O)c1ccc(OC)c(OC)c1 | – | inconclusive [inhibitor, single point]
O=S(=O)(c1cccc(-c2nc3n(n2)Cc2ccccc2-3)c1)N1CCCC1 | – | inconclusive [inhibitor, single point]
Cc1ccc(/C=C/C(=O)NC2CCCCCCC2)o1 | – | active: 3.55 µM
COc1ccc(NC(=O)N2CCC3(CC2)CCN(C(=O)c2cccn2C)CC3)cc1 | – | inconclusive [inhibitor, partial curve]
C=CCOC(=O)C1=C(C)Nc2nnnn2C1c1cccs1 (centres undefined) | – | active: 6.31 µM
CCOC(=O)C1(CC2CCCCO2)CCN(S(=O)(=O)c2cccc(F)c2)CC1 (centres undefined) | – | active: 25.1 µM
CC(=O)c1cccc(NC(=O)N2CCCC2C(=O)Nc2ccc3c(c2)OCO3)c1 (centres undefined) | inactive: -3.62% | –
Cc1ccc(NC(=O)c2cc(NC(=O)c3ccco3)ccc2N2CCOCC2)cc1Cl | – | inconclusive [inhibitor, single point]
CCn1c(C(=O)N2CCc3ccccc3C2)cc2oc3ccccc3c21 | – | inconclusive [inhibitor, partial curve]
CN1c2ccccc2C(C)(C)[C@]12C=Cc1cc(O)ccc1O2 | inactive: -9.31% | –
Cc1ccc(C)c(N(CC(=O)Nc2ccccc2C(=O)NCc2ccco2)S(=O)(=O)c2ccccc2)c1 | – | inconclusive [inhibitor, single point]
CCOC(=O)c1nnsc1NC(=O)Nc1ccc(OC)cc1 | – | inconclusive [inhibitor, single point]
COc1ccc(NC(=O)C(=O)NNC(=O)C(C)Oc2ccc(Cl)cc2Cl)cc1 (centres undefined) | inactive: 5.49% | –
CC(=O)c1cccc(N(CC(=O)N2CCCC2)S(C)(=O)=O)c1 | – | active: 25.1 µM

SMILES | activity, negative = inhibition | Potency
C=CCSC1=NC(=O)/C(=C/c2cccs2)S1 | – | inconclusive [inhibitor, single point]
CC(C)(C)NC(=S)Nc1ccc(Nc2ccccc2)cc1 | – | inconclusive [inhibitor, single point]
CN1CCN(C(=O)c2ccc3nc(-c4ccccc4)c(-c4ccccc4)nc3c2)CC1 | – | inconclusive [inhibitor, partial curve]
CCc1ccc(C(CNC(=O)c2ccc3c(=O)n(-c4ccccc4F)c(=S)[nH]c3c2)N(C)C)cc1 (centres undefined) | – | inconclusive [inhibitor, partial curve]
Cc1cc(C)n(-c2nnc(C)n2/N=C/c2ccccc2OCc2ccccc2Cl)n1 | inactive: -0.696% | –
CCOC(=O)O[C@]1(C(=O)COC(=O)CC)CC[C@@H]2[C@@H]3CCC4=CC(=O)C=C[C@@]4(C)[C@H]3[C@H](O)C[C@]21C | inactive: 4.27% [at 20.9 µM] | –
COc1ccc(NC(=O)CC2Sc3ncnn3C2=O)cc1 (centres undefined) | – | active: 0.398 µM
Cc1ccc(NC2=NC(c3ccc(O)cc3)n3c(nc(C)cc3=O)N2)cc1 (centres undefined) | – | inconclusive [inhibitor, partial curve]
C[C@@H](O)[C@@H]1NC(=O)c2cc([N+](=O)[O-])cc(I)c2NCC[C@@H](C(N)=O)NC(=O)CNC1=O | – | inconclusive [inhibitor, single point]
COc1cc2c(cc1OC)-c1cc(N3CCc4ccccc43)nc(=O)n1CC2 | – | inconclusive [inhibitor, partial curve]
Cc1cc(C(=O)NNC(=S)Nc2ccccc2)nn1C | inactive: 0.727% | –
O=C(COc1ccccc1)NC(NC(=S)Nc1ccccc1O)C(Cl)(Cl)Cl (centres undefined) | – | inconclusive [inhibitor, single point]
COc1ccc(N2C(=NC(C)=O)SC3CS(=O)(=O)CC32)cc1OC (centres undefined) | inactive: 1.99% | –
Cc1ccc(SCC2CNc3nc4ccccc4c(=O)n32)c(C)c1 (centres undefined) | inactive: -8% | –
CCC1C(C#N)=C(N)OC2=C1C(=O)CC(C)(C)C2 (centres undefined) | inactive: -11% | –
COc1ccc(CCN2C(=O)C3C4CC(C5C(C(=O)O)=NOC45)C3C2=O)cc1OC (centres undefined) | inactive: 5.57% | –
Cc1ccc(N(CC(=O)NC2CCCC2)C(=O)c2ccc(C)s2)cc1 | – | inconclusive [inhibitor, single point]
Cc1nn(-c2ccccc2)c2nc(-c3ccco3)cc(C(=O)O)c12 | – | inconclusive [inhibitor, single point]
COc1ccc(C(=O)NC(Nc2ccc(C)cc2)C(Cl)(Cl)Cl)cc1 (centres undefined) | – | inconclusive [inhibitor, single point]
Cc1ccc(C(=O)N2CCC(Cc3ccccc3)CC2)cc1[N+](=O)[O-] | – | active: 14.1 µM
CCc1cc2cc(C(=O)N3CCN(Cc4ccccc4)CC3)sc2s1 | – | inconclusive [inhibitor, single point]
COc1ccc(C(C)=O)cc1COc1ccccc1[N+](=O)[O-] | – | active: 3.16 µM
CCN(C(=O)COC(=O)c1cccnc1Nc1ccccc1F)C1CCS(=O)(=O)C1 (centres undefined) | inactive: 7.04% | –
O=S(=O)(c1ccc(Cl)cc1)N1CCSC1c1ccco1 (centres undefined) | – | inconclusive [inhibitor, single point]

From PubChem BioAssay AID1030 (National Center for Advancing Translational Sciences (NCATS), 2008)
